According to the supplement of paper PMC8728848:
The other results are listed elsewhere or left out.

Key:
Test in all cases: glycan array binding signal (z-score within array); higher = stronger binding
Conditions in all cases: glycan notation: IUPAC condensed, linker removed
[1] = target: Gal(b1-4)GlcNAc(b1-3)Gal(b1-4)Glc
Summary of the method: (§1)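 Columns mapping to the same glycan were averaged after glycan names were converted to IUPAC-condensed notation. The data come from 3228 arrays in the Consortium for Functional Glycomics database, limited to those with an available protein sequence. Binding is reported as a within-array Z-score averaged across arrays of one protein sequence and across linkers.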

[2] = target: Gal(b1-4)GlcNAc(b1-3)Gal(b1-4)GlcNAc
Summary of the method: as §1

[3] = target: Gal(b1-4)GlcNAc(b1-3)Gal(b1-4)GlcNAc(b1-2)Man(a1-3)[Gal(b1-4)GlcNAc(b1-3)Gal(b1-4)GlcNAc(b1-2)Man(a1-6)]Man(b1-4)GlcNAc(b1-4)GlcNAc
Summary of the method: as §1

[4] = target: Gal(b1-4)GlcNAc(b1-3)Gal(b1-4)GlcNAc(b1-2)Man(a1-3)[Gal(b1-4)GlcNAc(b1-3)Gal(b1-4)GlcNAc(b1-2)Man(a1-6)]Man(b1-4)GlcNAc(b1-4)[Fuc(a1-6)]GlcNAc
Summary of the method: as §1

[5] = target: Gal(b1-4)GlcNAc(b1-3)Gal(b1-4)GlcNAc(b1-2)[Gal(b1-4)GlcNAc(b1-3)Gal(b1-4)GlcNAc(b1-6)]Man(a1-6)[Gal(b1-4)GlcNAc(b1-3)Gal(b1-4)GlcNAc(b1-2)Man(a1-3)]Man(b1-4)GlcNAc(b1-4)GlcNAc
Summary of the method: as §1

[6] = target: Gal(b1-4)GlcNAc(b1-3)Gal(b1-4)GlcNAc(b1-2)[Gal(b1-4)GlcNAc(b1-3)Gal(b1-4)GlcNAc(b1-6)]Man(a1-6)[Gal(b1-4)GlcNAc(b1-3)Gal(b1-4)GlcNAc(b1-2)Man(a1-3)]Man(b1-4)GlcNAc(b1-4)[Fuc(a1-6)]GlcNAc
Summary of the method: as §1

[7] = target: Gal(b1-4)GlcNAc(b1-3)Gal(b1-4)GlcNAc(b1-3)Gal(b1-4)GlcNAc
Summary of the method: as §1

[8] = target: Gal(b1-4)GlcNAc(b1-3)Gal(b1-4)GlcNAc(b1-3)Gal(b1-4)GlcNAc(b1-2)Man(a1-3)[Gal(b1-4)GlcNAc(b1-3)Gal(b1-4)GlcNAc(b1-3)Gal(b1-4)GlcNAc(b1-2)Man(a1-6)]Man(b1-4)GlcNAc(b1-4)GlcNAc
Summary of the method: as §1

[9] = target: Gal(b1-4)GlcNAc(b1-3)Gal(b1-4)GlcNAc(b1-3)Gal(b1-4)GlcNAc(b1-2)Man(a1-3)[Gal(b1-4)GlcNAc(b1-3)Gal(b1-4)GlcNAc(b1-3)Gal(b1-4)GlcNAc(b1-2)Man(a1-6)]Man(b1-4)GlcNAc(b1-4)[Fuc(a1-6)]GlcNAc
Summary of the method: as §1

[10] = target: Gal(b1-4)GlcNAc(b1-3)Gal(b1-4)GlcNAc(b1-3)Gal(b1-4)GlcNAc(b1-2)[Gal(b1-4)GlcNAc(b1-3)Gal(b1-4)GlcNAc(b1-3)Gal(b1-4)GlcNAc(b1-6)]Man(a1-6)[Gal(b1-4)GlcNAc(b1-3)Gal(b1-4)GlcNAc(b1-3)Gal(b1-4)GlcNAc(b1-2)Man(a1-3)]Man(b1-4)GlcNAc(b1-4)[Fuc(a1-6)]GlcNAc
Summary of the method: as §1

[11] = target: Gal(b1-4)GlcNAc(b1-3)Gal(b1-4)GlcNAc(b1-3)Gal(b1-4)GlcNAc(b1-3)Gal(b1-4)GlcNAc(b1-2)Man(a1-3)[Gal(b1-4)GlcNAc(b1-3)Gal(b1-4)GlcNAc(b1-3)Gal(b1-4)GlcNAc(b1-3)Gal(b1-4)GlcNAc(b1-2)Man(a1-6)]Man(b1-4)GlcNAc(b1-4)GlcNAc
Summary of the method: as §1

[12] = target: Gal(b1-4)GlcNAc(b1-3)Gal(b1-4)GlcNAc(b1-3)Gal(b1-4)GlcNAc(b1-3)Gal(b1-4)GlcNAc(b1-2)Man(a1-3)[Gal(b1-4)GlcNAc(b1-3)Gal(b1-4)GlcNAc(b1-3)Gal(b1-4)GlcNAc(b1-3)Gal(b1-4)GlcNAc(b1-2)Man(a1-6)]Man(b1-4)GlcNAc(b1-4)[Fuc(a1-6)]GlcNAc
Summary of the method: as §1

[13] = target: Gal(b1-4)GlcNAc(b1-3)Gal(b1-4)GlcNAc(b1-3)Gal(b1-4)GlcNAc(b1-3)Gal(b1-4)GlcNAc(b1-2)[Gal(b1-4)GlcNAc(b1-3)Gal(b1-4)GlcNAc(b1-3)Gal(b1-4)GlcNAc(b1-3)Gal(b1-4)GlcNAc(b1-6)]Man(a1-6)[Gal(b1-4)GlcNAc(b1-3)Gal(b1-4)GlcNAc(b1-3)Gal(b1-4)GlcNAc(b1-3)Gal(b1-4)GlcNAc(b1-2)Man(a1-3)]Man(b1-4)GlcNAc(b1-4)[Fuc(a1-6)]GlcNAc
Summary of the method: as §1

[14] = target: Gal(b1-4)GlcNAc(b1-3)Gal(b1-4)GlcNAc(b1-3)Gal(b1-4)GlcNAc(b1-3)Gal(b1-4)GlcNAc(b1-3)Gal(b1-4)GlcNAc(b1-2)Man(a1-3)[Gal(b1-4)GlcNAc(b1-3)Gal(b1-4)GlcNAc(b1-3)Gal(b1-4)GlcNAc(b1-3)Gal(b1-4)GlcNAc(b1-3)Gal(b1-4)GlcNAc(b1-2)Man(a1-6)]Man(b1-4)GlcNAc(b1-4)GlcNAc
Summary of the method: as §1

[15] = target: Gal(b1-4)GlcNAc(b1-3)Gal(b1-4)GlcNAc(b1-3)Gal(b1-4)GlcNAc(b1-3)Gal(b1-4)GlcNAc(b1-3)Gal(b1-4)GlcNAc(b1-2)Man(a1-3)[Gal(b1-4)GlcNAc(b1-3)Gal(b1-4)GlcNAc(b1-3)Gal(b1-4)GlcNAc(b1-3)Gal(b1-4)GlcNAc(b1-3)Gal(b1-4)GlcNAc(b1-2)Man(a1-6)]Man(b1-4)GlcNAc(b1-4)[Fuc(a1-6)]GlcNAc
Summary of the method: as §1

[16] = target: Gal(b1-4)GlcNAc(b1-3)Gal(b1-4)GlcNAc(b1-3)Gal(b1-4)GlcNAc(b1-3)Gal(b1-4)GlcNAc(b1-3)Gal(b1-4)GlcNAc(b1-2)[Gal(b1-4)GlcNAc(b1-3)Gal(b1-4)GlcNAc(b1-3)Gal(b1-4)GlcNAc(b1-3)Gal(b1-4)GlcNAc(b1-3)Gal(b1-4)GlcNAc(b1-6)]Man(a1-6)[Gal(b1-4)GlcNAc(b1-3)Gal(b1-4)GlcNAc(b1-3)Gal(b1-4)GlcNAc(b1-3)Gal(b1-4)GlcNAc(b1-3)Gal(b1-4)GlcNAc(b1-2)Man(a1-3)]Man(b1-4)GlcNAc(b1-4)[Fuc(a1-6)]GlcNAc
Summary of the method: as §1

[17] = target: Gal(b1-4)GlcNAc(b1-3)Gal(b1-4)GlcNAc(b1-3)Gal(b1-4)GlcNAc(b1-3)Gal(b1-4)GlcNAc(b1-3)Gal(b1-4)GlcNAc(b1-3)Gal(b1-4)GlcNAc(b1-2)Man(a1-3)[Gal(b1-4)GlcNAc(b1-3)Gal(b1-4)GlcNAc(b1-3)Gal(b1-4)GlcNAc(b1-3)Gal(b1-4)GlcNAc(b1-3)Gal(b1-4)GlcNAc(b1-3)Gal(b1-4)GlcNAc(b1-2)Man(a1-6)]Man(b1-4)GlcNAc(b1-4)GlcNAc
Summary of the method: as §1

[18] = target: Gal(b1-4)GlcNAc(b1-3)Gal(b1-4)GlcNAc(b1-3)GalNAc
Summary of the method: as §1

[19] = target: Gal(b1-4)GlcNAc(b1-3)Gal(b1-4)GlcNAc(b1-3)[Gal(b1-4)GlcNAc(b1-3)Gal(b1-4)GlcNAc(b1-6)]GalNAc
Summary of the method: as §1

B1: Si Bti9 1b-V5-his (Solanum lycopersicum) (protein)
chain: MQCNRGCDLALASFYVWRGSNLTLISEMFSTSIADIVSYNNRDNIPNQDSVIAGTRINIPFRCDCLNDGEVLGHAFPYRVKSGDTYDLVARNYSDLTTAQWMMKFNSYPENNIPNTVNLSVVVNCSCGNSDVSKDFGLFVTYPVRAEDNLTSVASAANVSEDIIRRYNPAAVSILDIGQGIIYIPGRDRNGNFPPLPTSTDGLSGGAKKGGRADPAFLYKVVINSKLEGKPIPNPLLGLDSTRTGHHHHHH
[1]
  glycan array binding signal (z-score): -0.16
[2]
  glycan array binding signal (z-score): -0.25
[3]
  glycan array binding signal (z-score): 1.57
[4]
  glycan array binding signal (z-score): -0.052
[5]
  glycan array binding signal (z-score): 1.13
[6]
  glycan array binding signal (z-score): 0.273
[7]
  glycan array binding signal (z-score): -0.285
[8]
  glycan array binding signal (z-score): 0.058
[9]
  glycan array binding signal (z-score): -0.157
[10]
  glycan array binding signal (z-score): 0.218
[11]
  glycan array binding signal (z-score): -0.234
[12]
  glycan array binding signal (z-score): 0.046
[13]
  glycan array binding signal (z-score): 0.207
[14]
  glycan array binding signal (z-score): -0.09
[15]
  glycan array binding signal (z-score): -0.258
[16]
  glycan array binding signal (z-score): -0.167
[17]
  glycan array binding signal (z-score): 0.07
[18]
  glycan array binding signal (z-score): -0.204
[19]
  glycan array binding signal (z-score): 0.207
